Source: PubChem BioAssay AID504832 (National Center for Advancing Translational Sciences (NCATS), 2011)
Hit rate of the full screen: of about 310,000 compounds, about 18,000 (5.8%) were called active. The shares of active, inactive and inconclusive entries below differ from those in the screen. Calls follow the shape of the dose curve; as a rule, active = well fitted inhibition curve with a large enough effect; inconclusive = small, poorly fitted or top-dose-only effect, or another doubt; inactive = no such curve, though single readings can be large or run the other way. No potency is given beside an inconclusive call; the fits are too rough.

Test: Primary qHTS for delayed death inhibitors of the malarial parasite plastid, 48 hour incubation
Conditions: P. falciparum luciferase growth in erythrocytes; series mostly up to 28.7 µM
Method in brief: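 Parasite viability was followed by luminescence of a genomically integrated firefly luciferase. Cultures held 0.1% parasitemia at 2% hematocrit (final), incubated under 5% CO2 at 37 C.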
Potency is read from the fitted curve at half-maximal effect; tags tell the direction and shape of the fitted curve.

Row | SMILES | Potency
1 | Cc1ccc(NC(=O)CSc2nnc(Cc3ccccc3)c(=O)[nH]2)c(C)c1 | inconclusive [inhibitor, partial curve, poor fit]
2 | COc1cccc(N2CC(C(=O)Nc3c(C(N)=O)oc4ccccc34)CC2=O)c1 (centres undefined) | inconclusive [inhibitor, single point]
3 | CCCC(=O)Nc1ccc(NC(=O)c2cc3ccccc3o2)c(OC)c1 | inactive
4 | c1ccc(-c2nc(-c3cccnc3)cs2)cc1 | inconclusive [inhibitor, single point]
5 | COc1ccc(CCNC(=O)Cn2nc([N+](=O)[O-])c(Br)c2C)cc1OC | inactive
6 | COc1cccc(C(=O)Nc2ccc(NC(=O)C3CC3)cn2)c1 | inactive
7 | CCOC(=O)C1=C(COC(=O)C2(C)CC2(Cl)Cl)NC(=O)NC1c1ccc(OC)cc1 (centres undefined) | inconclusive [inhibitor, single point]
8 | Cc1c(CCOC(=O)CC23CC4CC(CC(C4)C2)C3)sc[n+]1CC(=O)c1ccc(Br)cc1 | inconclusive [inhibitor, single point]
9 | COC(=O)c1ccc(COc2ccccc2/C=C(\C#N)C(=O)Nc2c(C)cccc2C)cc1 | inconclusive [inhibitor, single point]
10 | Cc1cccc(N2C(=O)N3[C@H](c4ccc(Br)cc4)[C@@H]4C(=O)N(C(C)(C)C)C(=O)[C@@H]4[C@]3(C)C2=O)c1 | inconclusive [inhibitor, partial curve, poor fit]
11 | CCCCN(CC)Cc1c(O)ccc2c(-c3ccccc3)cc(=O)oc12 | inconclusive [inhibitor, partial curve]
12 | CCOC(=O)C1(Cc2ccccc2)CCN(Cc2ccon2)CC1 | inconclusive [inhibitor, single point]
13 | CCOC(=O)N1CCN(CC(=O)Nc2sccc2C#N)CC1 | inactive
14 | CCc1nnc(NC(=O)c2ccc(S(=O)(=O)N3CCCc4ccccc43)cc2)o1 | active: 7.38 µM
15 | O=S(=O)(c1ccc(Cl)cc1)n1ccc(-c2cccc(OCc3c(F)cccc3Cl)c2)n1 | inconclusive [inhibitor, partial curve]
16 | CC(=O)OCC(=O)Nc1ccc(SC(F)F)cc1 | inactive
17 | O=C(CN1C(=O)NC2(CCCCC2)C1=O)Nc1cccc(S(=O)(=O)N2CCCC2)c1 | inconclusive [inhibitor, single point]
18 | NC(N)=NC(N)=Nc1ccc(SC(F)(F)F)cc1 | active: 14.7 µM
19 | O=C(CCNC(=O)N1CC(=O)Nc2ccccc21)Nc1ccc(F)c(Cl)c1 | inactive
20 | c1ccc2c(c1)[nH]c1c(N3CCOCC3)ncnc12 | inconclusive [inhibitor, single point]
21 | Cc1ncc(CN2CCN(C(C)C)C(CCO)C2)s1 (centres undefined) | inactive
22 | CC(=O)c1ccc(N2CCc3ccccc3C2)c([N+](=O)[O-])c1 | inactive
23 | O=C(Nc1ccc(Cl)cc1)C1C2CCC3C(CCC21)C3(Cl)Cl (centres undefined) | inconclusive [inhibitor, single point]

Row | SMILES | Potency
24 | Cn1nnnc1SCC(=O)Nc1ccc(C(=O)N2CCN(Cc3ccccc3F)CC2)cc1 | inconclusive [inhibitor, single point]
25 | COc1cc(OC)cc(C(=O)NCC(=O)N2CC=C(c3ccccc3)CC2)c1 | inactive
26 | Cc1cc(S(=O)(=O)NCc2ccccc2)ccc1OCC(=O)NCc1ccncc1 | inconclusive [inhibitor, partial curve, poor fit]
27 | CCC(=O)Nc1ccc(C(=O)N/N=C/c2ccccc2[N+](=O)[O-])cc1 | inactive
28 | OC(CN1CCOCC1)CN1CCOCC1 | inactive
29 | CCOc1ccc2nc(NC(=O)Cc3cccs3)sc2c1 | inactive
30 | COc1nc(N(C)C)nc(N(C)c2cc(Cl)cc(Cl)c2)n1 | inconclusive [inhibitor, single point]
31 | COc1cccc(-c2n[nH]c(=S)n2Cc2ccco2)c1 | inactive
32 | Cc1ccc(C2CC3CCC(C2)N3Cc2ccccc2F)cc1 (centres undefined) | inconclusive [inhibitor, single point]
33 | CCCN(CCC)C(=O)CSc1nc2c(sc(=S)n2-c2ccc(OCC)cc2)c(=O)[nH]1 | inconclusive [inhibitor, partial curve, poor fit]
34 | CNC(=S)N1N=C(c2ccc(OC)cc2)CC1c1ccccc1Cl (centres undefined) | inconclusive [inhibitor, single point]
35 | O=C(NCC1COc2ccccc2O1)c1ccc(Cl)c(S(=O)(=O)N2CCOCC2)c1 (centres undefined) | inconclusive [inhibitor, single point]
36 | CC(C)Cc1nc(Cl)c(C#N)c2c1CCCC2 | inactive
37 | Cc1cccc(C(=O)N2CCC(c3nc(-c4ccc(S(=O)(=O)N5CCOCC5)cc4)no3)CC2)c1 | inconclusive [inhibitor, single point]
38 | C=CCNC(=S)/N=c1/ccccn1CCC | inactive
39 | COc1cc2c(c(OC)c1OC)-c1c(cc3c(c1O)OCO3)C[C@@H](C)[C@@H](C)C2 | inconclusive [inhibitor, single point]
40 | CCOC(=O)c1sc(-c2ccccc2)cc1NC(=O)CSc1nnnn1C | inconclusive [inhibitor, partial curve, poor fit]
41 | Cc1cc(C)nc(N/N=C/c2c(C)oc3ccccc23)n1 | inconclusive [inhibitor, partial curve, poor fit]
42 | Cc1ccsc1/C=N/NC(=O)c1ccncc1 | inconclusive [inhibitor, partial curve, poor fit]
43 | CN(C)c1nc(N)c([N+](=O)[O-])c(NCCO)n1 | inactive
44 | CC(C)(C)NC(=O)COc1ccc(CNc2ccc3[nH]c(=O)[nH]c3c2)cc1 | inconclusive [inhibitor, partial curve, poor fit]
45 | Cc1cc2oc(=O)cc(CN3CCN(S(=O)(=O)/C=C/c4ccccc4)CC3)c2cc1C | active: 10.4 µM
46 | CCc1ccc2[nH]c(C)c(CN3CCCCCC3)c(=O)c2c1 | inactive

Row | SMILES | Potency
47 | O=C(C1CCN(S(=O)(=O)c2cc(Cl)ccc2Cl)CC1)N1CCCC1 | inconclusive [inhibitor, single point]
48 | CCOC(=O)C1=C(C)NC(C)=C(C(=O)OCC)C1C(=O)OCC(=O)NC1(C#N)CCCCC1 | inconclusive [inhibitor, single point]
49 | Cc1cccc(N2CCN(S(=O)(=O)c3c(C)[nH]c(C)c3C(=O)N3CCCCC3)CC2)c1C | active: 9.28 µM
50 | CCOC(=O)N/N=C/c1cn(Cc2ccc(F)cc2)c2ccccc12 | inconclusive [inhibitor, partial curve]
51 | CCN(CC)C(=O)c1ccc(NC(=O)CN2CCc3cc(OC)c(OC)cc3C2)cc1 | inconclusive [inhibitor, partial curve]
52 | COc1ccc2c(c1)[C@H]1[C@H](CO2)[C@H](c2ccccc2)[C@]2(C)C(=O)Nc3cc(F)c(F)cc3C(=O)N12 | inconclusive [inhibitor, single point]
53 | COc1ccc(N2CCN(C(c3cc4ccc(C)cc4[nH]c3=O)c3nnnn3C3CCCC3)CC2)cc1 (centres undefined) | active: 1.85 µM
54 | C=CC[C@@H]1Cc2c(Br)ccc(Br)c2[C@@H](CC=C)N1 | inconclusive [inhibitor, partial curve, poor fit]
55 | COc1ccc(C2C(C(=O)c3ccccc3)N3c4ccccc4C=CC3C2[N+](=O)[O-])cc1 (centres undefined) | inconclusive [inhibitor, partial curve, poor fit]
56 | CC(=O)c1sc(NC(=O)CCN2C(=O)C3CC=CCC3C2=O)nc1-c1ccccc1 (centres undefined) | inconclusive [inhibitor, single point]
57 | CSc1nn2cc(CCN3CCOCC3)c(-c3ccc(F)cc3)nc2c1C#N | inconclusive [inhibitor, single point]
58 | COc1ccc(OC2C(=O)N(c3cc(C)ccc3C)C2c2ccc(OC)c(OC)c2)cc1 (centres undefined) | active: 7.38 µM
59 | O=C(Nc1ccccc1)C1=C[C@@H](c2coc3ccccc3c2=O)C[C@@H](OCc2ccc(CO)cc2)O1 | inconclusive [inhibitor, partial curve, poor fit]
60 | CCOC(=O)N/N=C\c1cccc(OC)c1OC/C=C/c1ccccc1 | inconclusive [inhibitor, full curve]
61 | CCOc1ccccc1OCC(=O)Nc1ccc(S(=O)(=O)N(C)C)cc1 | inconclusive [inhibitor, single point]
62 | COC(=O)c1cnc(SC)nc1C | inactive
63 | CC1(C)CC2CC(C)(CN2S(=O)(=O)c2ccc(C(=O)Nc3cc(S(=O)(=O)N4CCOCC4)ccc3Cl)cc2)C1 (centres undefined) | active: 3.7 µM
64 | N/C(=N\OC(=O)C12CC3CC(CC(C3)C1)C2)c1cccnc1 | inconclusive [inhibitor, single point]
65 | COCCn1nnnc1C(C(C)C)N(Cc1ccccc1)Cc1cc2cc(OC)ccc2[nH]c1=O (centres undefined) | active: 8.28 µM
66 | COCCNC(=S)NC1CC2CCC(C1)N2Cc1ccccc1 (centres undefined) | inconclusive [inhibitor, partial curve]
67 | O=c1cccccc1NN=C1CCCCC1 | inconclusive [inhibitor, single point]
68 | CCOc1cc(C(=O)Nc2ncn[nH]2)cc(OCC)c1OCC | inactive
69 | COc1ccc(Cl)cc1NC(=O)CN1C(=O)CC(C)S(=O)(=O)c2ccccc21 (centres undefined) | inconclusive [inhibitor, full curve, poor fit]
